# In PubChem BioAssay AID504333 (National Center for Advancing Translational Sciences (NCATS), 2011):
# Screen size: about 360,000 compounds; about 16,000 (4.4%) were called active. The inconclusive results got no clear call from the source; some entries with a clear call stand among them for comparison. Calls come from the whole dose curve; as a rule, active = well fitted inhibition curve with a large enough effect; inconclusive = small, poorly fitted or top-dose-only effect; inactive = no such curve, though single readings can be large or run the other way. Potencies of inconclusive entries are doubtful fits and often do not repeat.
# Target: Bromodomain adjacent to zinc finger domain protein 2B (Homo sapiens) (UniProt Q9UIF8)
# Assay: qHTS Assay for Inhibitors of BAZ2B; note: nearly all actives have a fitted effect of over 60% in size
# Conditions: AlphaScreen BAZ2B-H3K14Ac peptide displacement; activity change, negative = inhibition: at 114 µM (top of the series)
# How it was run: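 In this displacement format the biotinylated H3(5-23) peptide acetylated at Lys14 serves as ligand at 50 nM, with BAZ2B at 50 nM in PBS pH 7.4 containing 0.01% Tween-20. Donor and acceptor beads are 10 ug/mL final.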
# % is set by controls: 0 for no effect and ±100 for the full control effect; potency is the fitted concentration of half-maximal effect; tags give direction and shape of the fitted curve.
# Chain of UniProt Q9UIF8 (Q9UIF8 whole entry, looked up, the tested form may be a part): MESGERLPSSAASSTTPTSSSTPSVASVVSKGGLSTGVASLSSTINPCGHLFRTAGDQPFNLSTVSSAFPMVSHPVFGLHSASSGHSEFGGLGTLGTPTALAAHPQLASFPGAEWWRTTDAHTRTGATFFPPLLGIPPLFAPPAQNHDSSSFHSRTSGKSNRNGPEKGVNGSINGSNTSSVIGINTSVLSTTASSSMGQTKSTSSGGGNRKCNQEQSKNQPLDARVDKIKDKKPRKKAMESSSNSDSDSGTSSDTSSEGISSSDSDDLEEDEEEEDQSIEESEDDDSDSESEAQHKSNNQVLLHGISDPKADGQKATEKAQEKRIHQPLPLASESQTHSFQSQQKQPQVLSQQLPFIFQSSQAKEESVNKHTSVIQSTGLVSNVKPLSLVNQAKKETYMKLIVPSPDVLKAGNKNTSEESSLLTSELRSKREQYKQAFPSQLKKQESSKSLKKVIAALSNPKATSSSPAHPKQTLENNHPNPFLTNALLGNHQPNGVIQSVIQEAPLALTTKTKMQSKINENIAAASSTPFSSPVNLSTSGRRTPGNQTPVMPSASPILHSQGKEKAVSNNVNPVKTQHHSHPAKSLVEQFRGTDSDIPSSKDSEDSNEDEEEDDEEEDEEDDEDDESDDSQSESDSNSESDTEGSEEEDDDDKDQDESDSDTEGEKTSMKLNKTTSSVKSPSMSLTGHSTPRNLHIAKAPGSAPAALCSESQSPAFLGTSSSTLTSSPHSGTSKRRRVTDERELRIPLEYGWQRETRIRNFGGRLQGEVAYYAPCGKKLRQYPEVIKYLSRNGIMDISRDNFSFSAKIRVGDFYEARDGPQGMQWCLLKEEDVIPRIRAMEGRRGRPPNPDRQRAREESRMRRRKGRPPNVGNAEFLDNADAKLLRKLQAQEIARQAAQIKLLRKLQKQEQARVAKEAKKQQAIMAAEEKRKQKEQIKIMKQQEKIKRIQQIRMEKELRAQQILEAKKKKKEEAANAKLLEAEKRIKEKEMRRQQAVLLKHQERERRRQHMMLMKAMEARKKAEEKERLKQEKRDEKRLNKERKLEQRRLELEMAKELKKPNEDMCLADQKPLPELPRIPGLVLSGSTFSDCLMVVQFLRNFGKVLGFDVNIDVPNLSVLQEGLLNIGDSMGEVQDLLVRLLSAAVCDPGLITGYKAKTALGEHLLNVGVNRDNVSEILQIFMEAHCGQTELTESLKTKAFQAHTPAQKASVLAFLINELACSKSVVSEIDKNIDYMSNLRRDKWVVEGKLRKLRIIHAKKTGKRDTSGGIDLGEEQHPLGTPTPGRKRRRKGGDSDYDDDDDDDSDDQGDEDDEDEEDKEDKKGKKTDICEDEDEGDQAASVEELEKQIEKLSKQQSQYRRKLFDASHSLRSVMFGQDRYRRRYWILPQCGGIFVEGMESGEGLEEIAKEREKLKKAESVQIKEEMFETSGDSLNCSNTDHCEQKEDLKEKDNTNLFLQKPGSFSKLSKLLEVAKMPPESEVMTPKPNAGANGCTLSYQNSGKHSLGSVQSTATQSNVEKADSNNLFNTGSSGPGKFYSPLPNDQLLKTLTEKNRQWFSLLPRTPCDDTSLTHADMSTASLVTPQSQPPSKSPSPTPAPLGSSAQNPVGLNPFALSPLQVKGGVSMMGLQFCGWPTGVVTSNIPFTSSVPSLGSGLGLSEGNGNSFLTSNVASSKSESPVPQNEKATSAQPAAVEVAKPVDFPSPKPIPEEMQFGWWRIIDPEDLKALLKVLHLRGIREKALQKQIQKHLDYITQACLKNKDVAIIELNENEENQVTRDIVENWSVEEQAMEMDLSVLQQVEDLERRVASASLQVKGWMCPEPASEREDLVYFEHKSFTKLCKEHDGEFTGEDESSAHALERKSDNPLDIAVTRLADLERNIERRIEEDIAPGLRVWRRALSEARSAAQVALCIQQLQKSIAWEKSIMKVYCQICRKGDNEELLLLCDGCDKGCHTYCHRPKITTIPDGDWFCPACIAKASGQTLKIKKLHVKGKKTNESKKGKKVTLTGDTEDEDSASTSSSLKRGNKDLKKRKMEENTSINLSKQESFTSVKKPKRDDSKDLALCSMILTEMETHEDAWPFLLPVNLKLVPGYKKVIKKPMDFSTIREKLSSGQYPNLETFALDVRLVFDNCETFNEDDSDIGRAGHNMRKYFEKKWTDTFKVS
Structure (SMILES),"activity change, negative = inhibition",Potency
O=C(COC(=O)c1ccc2ccccc2c1)Nc1ncc(C(F)(F)F)cc1Cl,inactive: 9.67%,–
CCOC(=O)N1CCC(NC(=O)C2CCN(C(=O)c3cc4oc(C)cc4n3Cc3c(F)cccc3Cl)CC2)CC1,–,"inconclusive: 56.2 µM [inhibitor, partial curve]"
Cc1ccccc1NC(=S)N/N=C/c1ccc(O)cc1O,–,active: 8.91 µM
CCc1ccc(C2=NN(C(C)=O)C(c3ccco3)C2)cc1 (configuration not stated),–,"inconclusive: 70.8 µM [inhibitor, single point]"
O=C(OCC(=O)N1CCC(c2ccccc2)=N1)c1ccc([N+](=O)[O-])s1,–,"inconclusive: 39.8 µM [inhibitor, full curve]"
Cc1nc2ccc(S(=O)(=O)N(C)CC(=O)NCc3ccc(N(C)C)cc3)cc2s1,–,"inconclusive: 50.1 µM [inhibitor, partial curve]"
O=C(Nc1nc2ccccc2[nH]1)c1ccc(Cl)c(S(=O)(=O)N2CCCC2)c1,inactive: -4.53%,–
CCOC(=O)C1CCN(S(=O)(=O)c2ccc(C)cc2)CC1,–,"inconclusive: 0.708 µM [inhibitor, full curve, poor fit]"
O=C(NC(=S)N1CCCCCC1)c1ccccc1,–,"inconclusive: 79.4 µM [inhibitor, single point]"
CCCCCCSc1nnc2c(n1)OC(C)Nc1ccc(Br)cc1-2 (configuration not stated),inactive: -18.2%,–
COc1ccc(S(=O)(=O)N2CCOCC2)cc1NC(=O)CN1C(=O)NC2(CCCCC2C)C1=O (configuration not stated),–,"inconclusive: 89.1 µM [inhibitor, single point]"
CCCCC(c1nnnn1CC1CCCO1)N1CCN(c2cccc(C)c2C)CC1 (configuration not stated),–,"inconclusive: 79.4 µM [inhibitor, single point]"
CC1(C)C2CC=C(/C=N/NC(=S)NCCc3ccccc3)C1C2 (configuration not stated),–,"inconclusive: 89.1 µM [inhibitor, partial curve]"
O=c1[nH][nH]c(=O)n1-c1ccccc1,inactive: -2.55%,–
CCc1ccc(OCC(=O)N(Cc2ccc(C)o2)C2CCS(=O)(=O)C2)cc1 (configuration not stated),inactive: -29.4%,–
CC1CCN(C(=S)SCc2nc(N)nc(Nc3ccccc3)n2)CC1,–,"inconclusive: 70.8 µM [inhibitor, single point]"
Cn1c(=O)n(CCc2ccccc2)c(=O)c2c1nc1n2CCN1Cc1ccco1,–,"inconclusive: 50.1 µM [inhibitor, partial curve]"
O=C(O)/C(=C\c1ccccc1OC(F)F)c1ccc(-c2ccccc2)cc1,–,"inconclusive: 56.2 µM [inhibitor, partial curve]"
CCOC(=O)N1CCc2c(sc3c2c(=O)n(Cc2ccccc2)c(=O)n3Cc2ccccc2Cl)C1,–,"inconclusive: 79.4 µM [inhibitor, single point]"
Cc1ccc2ncc(C(=O)N3CCN(c4ccccc4F)CC3)c(=O)n2c1,inactive: 0.189%,–
COc1ccc(N2CCN(c3ncnc4scc(-c5ccc(F)cc5)c34)CC2)cc1,–,active: 7.94 µM
CC1(C)CC(=O)C(N=Nc2cc(Cl)c(Cl)c(Cl)c2)=C(O)C1,–,"inconclusive: 70.8 µM [inhibitor, single point]"
O=C(NCc1ccco1)C1CCCN(S(=O)(=O)c2ccc(-n3cnnn3)cc2)C1 (configuration not stated),–,"inconclusive: 70.8 µM [inhibitor, single point]"
COc1ccc(-c2nnn(CC(=O)NCCc3c[nH]c4ccccc34)n2)cc1OC,–,"inconclusive: 89.1 µM [inhibitor, single point]"

Structure (SMILES),"activity change, negative = inhibition",Potency
COc1cccc(/C=N/N2CCN(c3ccccc3OC)CC2)c1,–,"inconclusive: 44.7 µM [inhibitor, partial curve]"
Cc1ccc(C)c(NS(=O)(=O)c2cc(C(=O)NCc3ccccn3)ccc2C)c1,–,"inconclusive: 3.98 µM [inhibitor, partial curve, poor fit]"
CC(C)OC(=O)c1c(NC(=O)c2ccco2)sc2c1CCCCC2,inactive: 35.8%,–
CCCOc1ccc(C(F)(F)F)cc1NC(=O)CCc1c(C)noc1C,inactive: 10.1%,–
Cc1c(NC(=O)c2cc(-c3cccc(O)c3)on2)c(=O)n(-c2ccccc2)n1C,inactive: -4.12%,–
CCOC(=O)c1cc(C)[nH]c(=S)c1C#N,–,"inconclusive: 89.1 µM [inhibitor, single point]"
CC(C)(C)c1ccc(CNc2cc(N3CCOCC3)ccc2[N+](=O)[O-])cc1,–,"inconclusive: 8.91 µM [inhibitor, full curve]"
COc1ccc(-c2noc(CCC(=O)Nc3ccc(C(F)(F)F)cc3)n2)cc1,–,"inconclusive: 89.1 µM [inhibitor, single point]"
Cc1[nH]c2c(ccc3cccnc32)c1C,–,active: 35.5 µM
COc1ccc(CC(=O)Nc2ccc(-c3noc(-c4ccccc4OC)n3)cc2)cc1,–,"inconclusive: 7.08 µM [inhibitor, single point]"
Cc1cccc(NC(=O)Cn2cc(C(=O)C3CC3)c3ccccc32)c1C,inactive: -28.1%,–
CC1(C)CC2CC(C)(CN2Cc2c(O)ccc3ccccc23)C1 (configuration not stated),inactive: -9.37%,–
O=C1NCC(c2ccccc2)C1C(=O)N/N=C\c1ccc(-c2ccc(Cl)c(Cl)c2)o1 (configuration not stated),–,"inconclusive: 44.7 µM [inhibitor, partial curve]"
COc1ccc(C(=O)O/N=C(\N)Cc2ccc([N+](=O)[O-])cc2)c(OC)c1,inactive: -18.7%,–
NNc1ccccc1C(F)(F)F,–,active: 50.1 µM
COc1cc(NC(=O)C2CC(=O)NC3=C2C(=O)CCC3)c(OC)cc1Cl (configuration not stated),–,"inconclusive: 89.1 µM [inhibitor, single point]"
O=C(C[n+]1ccc(C(=O)N/N=C/c2ccc(Br)cc2)cc1)c1ccccc1,inactive: -9.88%,–
CCN(CCCNC(=O)CN1C(=O)COc2ccccc21)c1cccc(C)c1,–,"inconclusive: 50.1 µM [inhibitor, partial curve]"
Cc1ccc(NC(=O)c2ccc(OC(=O)CCN3C(=O)c4ccccc4C3=O)cc2)cc1,–,"inconclusive: 100 µM [inhibitor, single point]"
CC1CCN(CCOCCSc2ccc(Cl)cc2)CC1,–,active: 50.1 µM
CN(C)c1nc(=Nc2cccc(Cl)c2)ss1,–,"inconclusive: 50.1 µM [inhibitor, partial curve]"
Nc1nonc1-n1nnc(C(=O)N/N=C/c2cccc(Cl)c2)c1-c1ccc2c(c1)OCO2,inactive: -2.61%,–
C/C(=C\C(=O)c1cccnc1)Nc1ccc(C(=O)O)cc1,–,"inconclusive: 89.1 µM [inhibitor, single point]"
COc1cc(-n2nnnc2SCC(=O)N2CCN(c3ccc(F)cc3)CC2)c(OC)cc1Cl,–,"inconclusive: 89.1 µM [inhibitor, single point]"

Structure (SMILES),"activity change, negative = inhibition",Potency
Cc1ccc(NC(=O)CN2CCc3ccccc3C2)cc1S(=O)(=O)N(C)C,–,active: 50.1 µM
O=C(CCCN1C(=O)/C(=C/c2ccccc2)SC1=S)Nc1cccc(O)c1,–,"inconclusive: 31.6 µM [inhibitor, full curve]"
Nc1cc(C(=O)N/N=C/c2cccc([N+](=O)[O-])c2)n[nH]c1=O,–,active: 56.2 µM
CCCCCCCn1c2c(c(=N)c3ccccc31)CCC2,–,"inconclusive: 79.4 µM [inhibitor, partial curve]"
O=C(N/N=C/c1cccnc1)C(O)(c1ccccc1)c1ccccc1,inactive: -1.97%,–
Cc1ccc(/C=C/C(=O)OCC(=O)N(CC(C)C)c2c(N)n(Cc3ccccc3)c(=O)[nH]c2=O)o1,inactive: 4.36%,–
CN(C)CCCN(C(=O)c1ccc2c(c1)OCCO2)c1nc2ccc(Cl)cc2s1,–,"inconclusive: 79.4 µM [inhibitor, single point]"
NS(=O)(=O)c1ccc(CCNC(=O)CCS(=O)(=O)c2ccc(Br)cc2)cc1,–,active: 31.6 µM
CSc1ncc(CN2CCCC(C(=O)Nc3ccc(-c4ccco4)cc3)C2)cn1 (configuration not stated),–,"inconclusive: 25.1 µM [inhibitor, partial curve]"
Cc1cc(C(F)(F)F)nc(SCC(=O)Nc2cc(C)on2)n1,–,"inconclusive: 28.2 µM [inhibitor, single point]"
CSCCC(NC(=O)c1ccccc1)C(=O)NC1CCCC1 (configuration not stated),–,"inconclusive: 79.4 µM [inhibitor, single point]"
COc1cccc(N2CCN(C(=O)c3cccn3-c3nnc(N4CCCC4)s3)CC2)c1,–,"inconclusive: 70.8 µM [inhibitor, single point]"
COCCCNC(=O)c1ccc(-n2c(-c3ccccc3)cc3c2CCC(C)C3)cc1 (configuration not stated),inactive: 4.81%,–
O=[N+]([O-])c1ccc(S(=O)(=O)N2CCSC2c2ccco2)cc1 (configuration not stated),–,"inconclusive: 28.2 µM [inhibitor, partial curve]"
O=C(Nc1ncc2c(n1)-c1ccccc1CC2)c1ccc(Cl)cc1,inactive: 5.91%,–
Cc1cccc(CSc2nc(-c3cccs3)ccc2C#N)c1,inactive: 116%,–
COc1ccc(CNC(=O)C2CCN(C(=O)[C@@H]3Cc4ccccc4CN3)CC2)cc1,inactive: -4.46%,–
Cc1ccnc(NC(=O)Cc2ccc(F)cc2)n1,–,"inconclusive: 89.1 µM [inhibitor, single point]"
COc1cccc(-c2nc(-c3ccccc3)nc(N3CCN(C)CC3)c2C#N)c1,–,"inconclusive: 44.7 µM [inhibitor, partial curve]"
COC1=C(c2ccccc2)C(=O)c2ccccc2C1=O,–,active: 44.7 µM
O=C(COc1ccc(Cl)cc1)Nc1ccc2oc(-c3ccncc3)nc2c1,–,"inconclusive: 89.1 µM [inhibitor, single point]"
O=c1[nH]c(/C=C\c2ccc(O)c(O)c2)nc(O)c1[N+](=O)[O-],–,"inconclusive: 56.2 µM [inhibitor, partial curve]"
Cc1ccc(-c2csc(=Nc3cccnc3)n2CCCn2ccnc2)cc1C,–,active: 12.6 µM
COc1ccc(-c2[nH]n(-c3ccc([N+](=O)[O-])cc3)c(=O)c2C=NCc2ccccc2)cc1,inactive: -7.39%,–
